{"source": "paper PMC4336329", "about": "(PLoS ONE, 2015)", "note": "Screen size: about 310,000 compounds; about 2,200 (0.71%) showed an effect of 50% or more. The effect is printed as a negative number. The list shows a part of the results.", "data": [{"target": "human ether-à-go-go-related gene (hERG) potassium channel (human, UniProt Q12809)", "sequence (Q12809 whole entry, looked up)": "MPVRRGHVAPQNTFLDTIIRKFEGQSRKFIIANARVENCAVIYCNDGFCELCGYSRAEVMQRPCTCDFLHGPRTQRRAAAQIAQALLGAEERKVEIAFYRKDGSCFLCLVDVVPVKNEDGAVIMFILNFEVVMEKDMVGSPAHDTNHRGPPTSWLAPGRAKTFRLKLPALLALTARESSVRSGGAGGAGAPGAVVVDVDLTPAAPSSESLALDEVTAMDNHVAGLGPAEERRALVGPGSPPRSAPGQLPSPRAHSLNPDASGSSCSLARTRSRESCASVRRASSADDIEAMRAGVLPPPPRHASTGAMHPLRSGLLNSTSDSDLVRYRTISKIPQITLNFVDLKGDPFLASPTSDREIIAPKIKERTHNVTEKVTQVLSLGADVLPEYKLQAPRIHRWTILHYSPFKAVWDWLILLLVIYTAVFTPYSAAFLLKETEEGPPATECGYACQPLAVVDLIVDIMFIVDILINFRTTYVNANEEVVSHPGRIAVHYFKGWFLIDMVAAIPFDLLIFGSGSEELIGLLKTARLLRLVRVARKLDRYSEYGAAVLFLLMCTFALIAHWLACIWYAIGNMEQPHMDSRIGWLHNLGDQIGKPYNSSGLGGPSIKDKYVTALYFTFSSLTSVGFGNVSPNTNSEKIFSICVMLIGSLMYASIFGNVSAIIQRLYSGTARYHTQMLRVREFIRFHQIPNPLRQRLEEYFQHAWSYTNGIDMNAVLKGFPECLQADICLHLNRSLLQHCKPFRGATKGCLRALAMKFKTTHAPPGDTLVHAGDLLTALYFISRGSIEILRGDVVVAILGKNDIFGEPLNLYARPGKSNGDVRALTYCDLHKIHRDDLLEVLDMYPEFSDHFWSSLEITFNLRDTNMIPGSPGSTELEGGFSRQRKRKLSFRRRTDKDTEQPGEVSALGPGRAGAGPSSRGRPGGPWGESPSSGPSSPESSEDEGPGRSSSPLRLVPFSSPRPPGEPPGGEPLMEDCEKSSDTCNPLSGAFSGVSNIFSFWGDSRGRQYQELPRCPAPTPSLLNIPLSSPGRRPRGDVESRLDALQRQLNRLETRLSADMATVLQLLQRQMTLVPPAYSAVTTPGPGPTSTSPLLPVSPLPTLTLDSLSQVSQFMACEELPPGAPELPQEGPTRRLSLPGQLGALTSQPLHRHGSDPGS", "assay": "primary screen, population patch clamp on CHO cells stably expressing hERG", "units": {"hERG current change (%, negative = inhibition) at 1uM": "%"}, "values": [{"smiles": "CCC1SC2=NC(C)=C(C(=O)OCC(C)C)C(/C=C/c3ccccc3OC)N2C1=O", "note": "(stereo not drawn)", "hERG current change (%, negative = inhibition) at 1uM": -14.9}, {"smiles": "C=CCNc1nc(Cl)nc(Nc2cc(Cl)ccc2OC)n1", "hERG current change (%, negative = inhibition) at 1uM": 16.3}, {"smiles": "CC(C)n1cc(-c2nc(C(=O)NN)cs2)c(=O)n(Cc2ccccc2)c1=O", "hERG current change (%, negative = inhibition) at 1uM": 5.65}, {"smiles": "CCN1CCCC1CNC(=O)c1csc2c1CCCC2", "note": "(stereo not drawn)", "hERG current change (%, negative = inhibition) at 1uM": 1.22}, {"smiles": "Cc1ccc2[nH]c3nc(N/N=C/c4cccc(O)c4)nnc3c2c1", "hERG current change (%, negative = inhibition) at 1uM": 19.5}, {"smiles": "Cc1cccc(-n2c(O)c(/C=N/NC(=O)c3ccncc3)c(=O)[nH]c2=O)c1", "hERG current change (%, negative = inhibition) at 1uM": 14.2}, {"smiles": "Cc1ccc(CS(=O)(=O)CCC(=O)NC2CC2)cc1", "hERG current change (%, negative = inhibition) at 1uM": 1.21}, {"smiles": "COc1cc(-c2nnn(CC(=O)NCc3ccccc3)n2)cc(OC)c1OC", "hERG current change (%, negative = inhibition) at 1uM": -3.31}, {"smiles": "CCc1nnc(NC(=O)c2ccc3c(c2)C(=O)N(C(C)(C)C)C3=O)s1", "hERG current change (%, negative = inhibition) at 1uM": 8.45}, {"smiles": "O=C(/C=C/c1ccccc1)Nc1cccnc1Cl", "hERG current change (%, negative = inhibition) at 1uM": 17.2}, {"smiles": "O=[N+]([O-])c1cc(-c2nnc(Nc3ccc(O)cc3)c3ccccc23)ccc1N1CCOCC1", "hERG current change (%, negative = inhibition) at 1uM": 15.9}, {"smiles": "COc1ccc(C2C(C(=O)Nc3ccc4c(c3)OCCO4)c3ccccc3C(=O)N2C)cc1", "note": "(stereo not drawn)", "hERG current change (%, negative = inhibition) at 1uM": 13.4}, {"smiles": "CC(C(=O)N1CCOCCOCCOCCOCCOCC1)N1C(=O)c2ccccc2C1=O", "note": "(stereo not drawn)", "hERG current change (%, negative = inhibition) at 1uM": 4.46}, {"smiles": "Cc1ccc(N2C(=O)N(CC(=O)Nc3cccc(C)c3C)C(=O)C2C)cc1", "note": "(stereo not drawn)", "hERG current change (%, negative = inhibition) at 1uM": 11.4}, {"smiles": "Nc1ccc(C2(c3ccc(N)cc3)c3ccccc3C(=O)c3ccccc32)cc1", "hERG current change (%, negative = inhibition) at 1uM": 12.1}, {"smiles": "CC(C)CNC(=O)Nc1ccc(F)c(Cl)c1", "hERG current change (%, negative = inhibition) at 1uM": -1.79}, {"smiles": "COc1ccc(-c2nn(-c3ccccc3)cc2C(=O)N2c3ccc(C)cc3C3CN(C)CCC32)cc1", "note": "(stereo not drawn)", "hERG current change (%, negative = inhibition) at 1uM": 15.4}, {"smiles": "Nc1nc(SCc2ccc(Cl)cc2Cl)ns1", "hERG current change (%, negative = inhibition) at 1uM": 10.3}, {"smiles": "CN(Cc1ccccc1)S(=O)(=O)c1cccc2cccnc12", "hERG current change (%, negative = inhibition) at 1uM": 0.857}, {"smiles": "O=C(Nc1cccc(S(=O)(=O)NC2=NCCC2)c1)c1cc(Cl)ccc1[N+](=O)[O-]", "hERG current change (%, negative = inhibition) at 1uM": 12.7}, {"smiles": "O=C(Nc1ccccc1Cl)c1ccccc1", "hERG current change (%, negative = inhibition) at 1uM": 9.54}, {"smiles": "O=C(N/N=C/c1ccncc1)c1cccc([N+](=O)[O-])c1", "hERG current change (%, negative = inhibition) at 1uM": 3.59}, {"smiles": "COC(=O)c1sc(N)c(C(=O)OC)c1COC(=O)CNS(=O)(=O)c1ccc(C)cc1", "hERG current change (%, negative = inhibition) at 1uM": 5.45}, {"smiles": "Cc1ccc(NCC(=O)N/N=C\\c2cccc(O)c2)cc1", "hERG current change (%, negative = inhibition) at 1uM": 15.1}]}]}
